Source: the supplement of paper PMC10126150
Values marked as one replicate rest on one cluster of the flow cell; about a third of the high ones do not repeat.

System: ATP
Test: switch fluorescence ratio, 500 uM ATP over buffer (Cy3 cluster intensity, sum of 5 cycles each) (fold (ratio)); higher = stronger signal-on switching upon ATP binding; sequences stand for … in TCGTCGGCAGCGTCAGATGTGTATAAGAGACAGTTTTTTTTTTTTTTTTTTTTTTTTT…TC
Details: aptamer strand: ATP DNA aptamer (quencher-CACCTGGGGGAGTATTGCGGAGGAAGG + anchor), 100 nM annealed; ATP concentration: 500 uM; one replicate
In short: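 For every switch-domain sequence, the fluorescence ratio is the mean of per-cluster values, each being summed target-cycle Cy3 intensity over summed buffer-cycle Cy3 intensity. Clusters outside 100-1000 RFU were excluded. On a modified Illumina MiSeq flow-cell, the Cy3-labelled switching-strand clusters were annealed to 100 nM quencher-labelled ATP aptamer, imaged in selection buffer and then after 15 min with 500 uM ATP at 22 °C. Five such cycles were run, with NaOH stripping and re-annealing between them.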
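Note: ATP exposure 15 min at 22 °C before imaging.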

Row | Sequence | switch fluorescence ratio
1 | TAACACTCAG | 1.05
2 | CTGTGATGTC | 1.03
3 | TAAAGGATCT | 1
4 | CAGCGGGCCT | 1.02
5 | GGATTGGATA | 0.985
6 | CGGCCGTATC | 1.12
7 | GCGAATCTCG | 1.02
8 | ATGAGTCATA | 1.02
9 | GCATGTAAGT | 1.02
10 | TTAGGCTTCA | 1.1
11 | GGTTGAATAT | 1.03
12 | CAACCGTAGA | 1.09
13 | CTAAAAAGTC | 0.995
14 | CCGTCAGGTA | 1.02
15 | CTTGTTTTCG | 0.963
16 | CTCTACCCTT | 1.05
17 | GTGTGGCACG | 1.01
18 | GCTGTGATCT | 0.95
19 | TTTTGCCGGA | 1
20 | GAGGTAGTTT | 0.973
21 | GTTCTATTCC | 1.05
22 | TAGATCCCGT | 1.05
23 | CGTTTGTAGA | 1.03

Row | Sequence | switch fluorescence ratio
24 | CTGGAACGG | 1.02
25 | TGTGAGGGGC | 0.999
26 | TCCCCCCCCT | 1.45
27 | CAAGCGCCGA | 0.99
28 | CTTATGGATA | 1.05
29 | GAATGGAATT | 0.982
30 | TTACATGGCG | 1.02
31 | AATGGTTGAT | 0.975
32 | TTCTTAGAGG | 1
33 | TATACATTTT | 1.04
34 | GTAGGAAA | 1.02
35 | TGGATATGTT | 0.986
36 | AAACTGGTGC | 1.17
37 | TTGTTTGTAC | 1
38 | CCGAAGGCAA | 3.94
39 | GGATATTATT | 0.978
40 | CGCATATGGT | 1.77
41 | CGATTTCGGA | 1.01
42 | TATTCCGCG | 1.31
43 | AGATGGTAC | 1.07
44 | AGCTTTAGAG | 1.01
45 | AGAAATGTAG | 1.02
46 | ACGATATTGG | 1.16

Row | Sequence | switch fluorescence ratio
47 | TTCATAAGGA | 0.981
48 | TAAGTCAGTT | 0.992
49 | AAGTCAAGC | 1.06
50 | AGTCCCGGGC | 1
51 | GGTTGCTGTT | 1.03
52 | AACTATAGTA | 1.02
53 | ATTGTTACTA | 0.997
54 | TAATGGGGA | 1.02
55 | AGCCTGGC | 1.08
56 | ATATCGGTCC | 0.982
57 | CGGCCCATAT | 1.05
58 | AAAAAAGGA | 1.01
59 | ACCGAGCGGA | 1.12
60 | ATGTGGACCA | 1
61 | CATTTATTAC | 1.06
62 | CGAAGGGG | 1.14
63 | TTGATGTGA | 1.01
64 | AACGGTCGAC | 0.995
65 | CGAGTAAAGG | 1.01
66 | TGGGTACTCG | 1.01
67 | CATGATAATT | 0.971
68 | CACTCAGTAC | 1.38
69 | ATTTCGTGGC | 0.991

Row | Sequence | switch fluorescence ratio
70 | TGGGCGTA | 0.99
71 | AGTAGCTATG | 0.96
72 | GCATGCCGGG | 0.963
73 | TCAATGCTA | 1.01
74 | TGCTCTCTTC | 0.985
75 | TCTCAGATGA | 1.01
76 | TGTCGTTAGG | 1
77 | CAAAAGGGCA | 1.01
78 | CAAAAATAAT | 0.964
79 | TAGAAAAG | 1.01
80 | TAGAGAAAAG | 1
81 | GTTTTGCTAC | 1.08
82 | TCAGCGGAGT | 1.01
83 | TAGGTGATAG | 1.02
84 | TAGCGTAATC | 1.15
85 | GAGATCGGAC | 0.992
86 | CAGATTAAGA | 1.01
87 | CTTTTGTTCG | 0.97
88 | AGTAAGCTTT | 0.949
89 | TGCACGTGTG | 0.957
90 | CATGCGGGAT | 1.04
91 | TTATGTGCCA | 0.988
92 | GTCGTAATGG | 0.968

Row | Sequence | switch fluorescence ratio
93 | CGACAATGT | 1.12
94 | AAGCCCAAAC | 1.15
95 | TAAGTTGTCG | 1.13
96 | GTCGGGCTAA | 0.954
97 | GTCGCAGGCT | 1.04
98 | TCGGGTTTCT | 0.955
99 | GACGTTGAT | 0.986
100 | AAGGTATACA | 1.01
101 | TTAGTCATGG | 0.993
102 | TTTGACTAGT | 0.964
103 | GATCAAATCG | 0.96
104 | GCTAGCGACT | 1.03
105 | CAGTCGCCAA | 1.06
106 | TTCCCCTACC | 1.18
107 | CCCAGGCTGG | 1.04
108 | GCAGCGGCAC | 1.33
109 | CGTTACAGCC | 1.04
110 | TGTGGACGTC | 1.05
111 | GACTTGATGG | 1
112 | TTGCTGGTG | 1.03
113 | AAAGCTAAGG | 0.99
114 | TTGATCTCTC | 0.994
115 | TATAGTTCGC | 1.02

Row | Sequence | switch fluorescence ratio
116 | ACTTGACTT | 1.13
117 | GGTTGACCTT | 1.1
118 | CGCAGAGGGG | 1.05
119 | TAATAGTT | 0.974
120 | GTGTTGTTTG | 0.989
121 | CACGCGCCGG | 1.04
122 | CAAGTGACGC | 1.06
123 | CTCACGGA | 1.2
124 | GTCTGTTAAG | 1.02
125 | GTTTGGCATT | 1.05
126 | CCGGACGGGC | 1.14
127 | TTACACGGTT | 1.05
128 | TCAGTGCGAC | 1
129 | AGCTGTCTAC | 0.993
130 | TCGTGTACAA | 1.06
131 | TTTGTATCGG | 1.04
132 | TAGGAGGAG | 0.991
133 | TAGATTAGAT | 0.957
134 | CATTGCGCTT | 1.07
135 | GCCTCTCGCC | 1.63
136 | CACTACTACT | 1.13
137 | CCTGTTTGA | 0.989
138 | CGAAGTATTG | 1.01

Row | Sequence | switch fluorescence ratio
139 | ACGCGGATGT | 1.06
140 | CGGGTACGAC | 1.05
141 | GATTTAGGGC | 0.961
142 | TGTCACCCCG | 1
143 | GACTCTAGCG | 1.04
144 | TCATCTTATT | 0.963
145 | TGATCGCAGG | 1.07
146 | CGAACCTAGA | 1.02
147 | CAGCCAGGAA | 1.03
148 | GAGCCACTAC | 1.65
149 | CGGACAGAGA | 1.02
150 | TGATGACTAA | 0.995
151 | TGCTAATCGT | 1
152 | ATTAAGGGAG | 1.02
153 | CGAGTAACTT | 0.997
154 | GGGTGACCGG | 0.95
155 | TGAAAAGTTT | 1.09
156 | AGTACTGCTG | 0.952
157 | TTTGTTTCGG | 0.947
158 | ATGGATCTAA | 0.969
